The text below walks through data of article PMC3493529, “Molecular and Pharmacological Characterization of Serotonin 5-HT2α and 5-HT7 Receptors in the Salivary Glands of the Blowfly Calliphora vicina” (PLoS ONE, 2012).

Assay [1] addresses Cv5-HT2α (Calliphora vicina, UniProt I7JA47). The experiment in a line: Inhibition of 5-HT-induced Ca2+ signals in Cv5-HT2α-expressing cells. The assay is classed as cell-based. The method, then: (§1) We applied a previously established protocol to generate cell lines that constitutively expressed either Cv5-HT2α or Cv5-HT7. For Cv5-HT2α expression, human embryonic kidney cells (HEK 293; ECACC, Salisbury, UK) were chosen. […] (flpTM cells, provided by Sibion biosciences GmbH, Jülich, Germany). Approximately 8 µg of the respective expression vectors were introduced into ∼4×10^5 cells by a modified calcium-phosphate method. Stably transfected cells were selected in the presence of the antibiotics Blasticidin (0.1 mg/ml; Cv5-HT2α) or G418 (0.8 mg/ml; Cv5-HT7). Expression of Cv5-HT2α and Cv5-HT7 was monitored by Western blotting with commercially available anti-His antibodies (anti-6x His Epitope Tag; Rockland Immunochemicals Inc, Gilbertsville, USA) and anti-HA antibodies (clone 3F10; Roche, Penzberg, Germany), respectively.
(§2) The ability of Cv5-HT2α to induce Ca^2+ signals in the transfected cell line was measured with the Ca^2+-sensitive dye Fluo-4. Similarly, Cv5-HT7-induced cAMP production was indirectly monitored by the cAMP-dependent activation of the cyclic nucleotide-gated ion channel in flpTM cells (see above). The cyclic nucleotide-gated ion channel is permeable to Ca^2+ ions and thus an increase in [cAMP]i leads to an influx of Ca^2+ ions, which can be detected with Fluo-4. Cells were grown in 96-well plates to a density of ∼3×10^4 (Cv5-HT2α) or 1.5×10^4 (Cv5-HT7) and then incubated in extracellular solution (ES in mM: 120 NaCl, 5 KCl, 2 CaCl2, 2 MgCl2, 10 glucose, 10 HEPES, pH 7.4) containing 3 mM probenecid, 0.02% (w/v) Pluronic® F-127 (Sigma) and 2 µM Fluo-4AM (Invitrogen). After 1 h, the loading solution was substituted for dye-free ES. To inhibit cAMP hydrolysis in Cv5-HT7-expressing cells, ES containing 100 µM isobutylmethylxanthine (IBMX) was used. Plates were transferred into a fluorescence reader (FLUOstar Omega; bmg, Offenburg, Germany) and Fluo-4 fluorescence was monitored. The excitation wavelength was 485 nm. Fluorescence emission was detected at 520 nm. Once the basal fluorescence in each well had reached a stable value, various concentrations of the respective ligands were added. The resulting changes in Fluo-4 fluorescence were recorded automatically.
(§3) Changes in Ca^2+-dependent Fluo-4 signals were registered automatically. Data represent the means±SD of eight replicates. […] Relative fluorescence (%) is normalized to the values obtained with 100 nM 5-HT in the absence of antagonists. […] Relative fluorescence (%) is normalized to the values obtained with 6 nM 5-HT in the absence of antagonists.

Assay [2] deals with Cv5-HT7 (Calliphora vicina, UniProt I7IA71). Briefly: Inhibition of 5-HT-induced Fluo-4 signals in Cv5-HT7-expressing cells. The assay is classed as cell-based. The method, then:
as §1, §2, §3

Setting [3] is: Cv5-HT2α IC50, in the presence of 100 nM 5-HT.
The mark [4] stands for this setting: Cv5-HT2α log IC50, in the presence of 100 nM 5-HT.
The mark [5] stands for this setting: Cv5-HT7 IC50, in the presence of 6 nM 5-HT.
[6] abbreviates: Cv5-HT7 log IC50, in the presence of 6 nM 5-HT.

Like-named read-outs stand apart in the source and are kept apart here.

Sequence of Cv5-HT7 (I7IA71 entry or part of it): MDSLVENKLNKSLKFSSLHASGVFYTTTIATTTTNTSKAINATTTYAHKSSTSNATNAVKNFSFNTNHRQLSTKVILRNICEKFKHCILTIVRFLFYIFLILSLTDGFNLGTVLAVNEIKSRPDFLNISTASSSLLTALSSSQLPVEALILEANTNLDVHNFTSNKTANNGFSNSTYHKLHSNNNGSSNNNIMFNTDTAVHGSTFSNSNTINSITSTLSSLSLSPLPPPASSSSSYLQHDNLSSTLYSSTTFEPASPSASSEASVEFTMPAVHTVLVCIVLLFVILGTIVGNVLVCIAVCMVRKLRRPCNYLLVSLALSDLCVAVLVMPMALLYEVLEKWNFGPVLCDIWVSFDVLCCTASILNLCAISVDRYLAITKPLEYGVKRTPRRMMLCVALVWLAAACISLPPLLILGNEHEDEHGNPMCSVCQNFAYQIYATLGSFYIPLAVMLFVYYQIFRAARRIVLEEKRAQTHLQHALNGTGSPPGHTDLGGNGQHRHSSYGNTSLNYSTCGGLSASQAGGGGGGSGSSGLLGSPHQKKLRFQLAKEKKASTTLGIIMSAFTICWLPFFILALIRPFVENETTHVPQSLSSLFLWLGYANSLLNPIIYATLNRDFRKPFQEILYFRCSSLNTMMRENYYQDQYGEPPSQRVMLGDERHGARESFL
Sequence of Cv5-HT2α (I7JA47 entry or part of it): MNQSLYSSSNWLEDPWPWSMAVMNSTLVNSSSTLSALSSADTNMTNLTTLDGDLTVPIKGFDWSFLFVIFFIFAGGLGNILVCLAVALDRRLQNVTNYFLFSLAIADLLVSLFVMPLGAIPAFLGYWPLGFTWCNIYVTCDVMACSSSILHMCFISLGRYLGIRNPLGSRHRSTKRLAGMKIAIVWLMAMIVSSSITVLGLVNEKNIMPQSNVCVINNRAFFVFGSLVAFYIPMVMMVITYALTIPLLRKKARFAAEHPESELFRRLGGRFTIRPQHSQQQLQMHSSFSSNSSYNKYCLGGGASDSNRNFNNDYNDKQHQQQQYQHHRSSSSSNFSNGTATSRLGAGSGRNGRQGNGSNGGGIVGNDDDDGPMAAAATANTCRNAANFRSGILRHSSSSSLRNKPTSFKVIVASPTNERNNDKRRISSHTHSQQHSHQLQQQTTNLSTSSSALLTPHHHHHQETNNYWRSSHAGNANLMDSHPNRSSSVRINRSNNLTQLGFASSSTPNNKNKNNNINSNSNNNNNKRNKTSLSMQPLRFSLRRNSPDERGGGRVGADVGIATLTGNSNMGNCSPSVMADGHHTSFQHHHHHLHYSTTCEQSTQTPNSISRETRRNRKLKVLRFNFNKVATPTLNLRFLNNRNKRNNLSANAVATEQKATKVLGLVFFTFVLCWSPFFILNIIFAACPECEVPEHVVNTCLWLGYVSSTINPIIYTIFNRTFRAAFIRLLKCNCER

As for `CN1CCN2c3ccccc3Cc3ccccc3C2C1` (stereo not drawn) [mianserin], the IC50 in assay [1] (in the presence of 100 nM 5-HT, read-out: Cv5-HT2α IC50) was 730 nM; in assay [1] (in the presence of 100 nM 5-HT, read-out: Cv5-HT2α log IC50 (converted)), 724 nM; in assay [2] (in the presence of 6 nM 5-HT, read-out: Cv5-HT7 IC50), 67 nM; in assay [2] (in the presence of 6 nM 5-HT, read-out: Cv5-HT7 log IC50 (converted)), 67.6 nM.
Take `CN1CCN(C2=Nc3cc(Cl)ccc3Nc3ccccc32)CC1` [clozapine]: the IC50 is 15000 nM in assay [1] (setting [3]), 15100 nM in assay [1] (setting [4]), 80 nM in assay [2] (setting [5]) and 79.4 nM in assay [2] (setting [6]).
The corresponding values for `CN1CCC(=C2c3ccccc3C=Cc3ccccc32)CC1` [cyproheptadine] are 1600 nM, 1580 nM, 73 nM and 72.4 nM.
